Results taken from article PMC10632401, “Cell-free biosynthesis combined with deep learning accelerates de novo-development of antimicrobial peptides” (Nature Communications, 2023).
Residues, ends and D or L forms follow the SMILES beside them. No end group written: not given here.

The compounds below were run on human red blood cells. Details: red cells of human, 1 h.

Row | Compound | HC50 (hemolysis)
1 | CC[C@H](C)[C@H](NC(=O)CNC(=O)[C@@H](N)CCSC)C(=O)NCC(=O)N[C@@H](CCCCN)C(=O)N[C@@H](Cc1ccccc1)C(=O)N[C@@H](CCC(N)=O)C(=O)N[C@@H](CCCCN)C(=O)N[C@@H](CCSC)C(=O)N[C@@H](CCCNC(=N)N)C(=O)N[C@@H](Cc1ccccc1)C(=O)N[C@H](C(=O)NCC(=O)N[C@@H](C)C(=O)N[C@H](C(=O)N[C@@H](CCCNC(=N)N)C(=O)N[C@@H](C)C(=O)N[C@@H](CO)C(=O)N[C@@H](CCCCN)C(=O)NCC(=O)N[C@H](C(=O)N[C@@H](C)C(=O)N[C@@H](CCCCN)C(=O)NCC(=O)N[C@@H](CC(C)C)C(=O)N[C@@H](CC(C)C)C(=O)N[C@@H](CCCNC(=N)N)C(=O)N[C@H](C(=O)N[C@@H](C)C(=O)N[C@@H](C)C(=O)N[C@H](C(=O)N[C@@H](CCCNC(=N)N)C(=O)N[C@H](C(=O)NCC(=O)N[C@@H](CCCNC(=N)N)C(=O)N[C@@H](CCCNC(=N)N)C(=O)N[C@@H](C)C(=O)N[C@@H](CC(C)C)C(=O)N[C@H](C(=O)N[C@H](C(N)=O)[C@@H](C)O)[C@@H](C)O)[C@@H](C)O)[C@@H](C)CC)[C@@H](C)CC)C(C)C)[C@@H](C)CC)[C@@H](C)CC [AMP #21] (H-MGIGKFQKMRFIGAIRASKGVAKGLLRIAAIRTGRRALTT-NH2) | > 250 µM
2 | CC[C@H](C)[C@H](NC(=O)[C@H](CO)NC(=O)[C@H](CO)NC(=O)[C@H](CO)NC(=O)[C@H](CCCNC(=N)N)NC(=O)[C@@H](NC(=O)[C@H](CO)NC(=O)[C@@H](N)CCSC)[C@@H](C)O)C(=O)N[C@@H](CCCNC(=N)N)C(=O)N[C@@H](CCCNC(=N)N)C(=O)N[C@@H](CC(C)C)C(=O)N[C@H](C(=O)N[C@@H](CCC(=O)O)C(=O)N[C@@H](C)C(=O)N[C@H](C(=O)N[C@@H](CCCNC(=N)N)C(=O)N[C@H](C(=O)N[C@@H](CCCNC(=N)N)C(=O)N[C@@H](Cc1ccccc1)C(=O)N[C@@H](CCCNC(=N)N)C(=O)N[C@@H](C)C(=O)N[C@@H](C)C(=O)N[C@@H](CC(C)C)C(=O)N[C@@H](CCCNC(=N)N)C(=O)N[C@H](C(=O)N[C@H](C(=O)N[C@@H](CC(C)C)C(=O)N[C@@H](Cc1ccccc1)C(=O)N[C@@H](Cc1ccccc1)C(=O)N[C@@H](C)C(=O)N[C@@H](CC(C)C)C(=O)N[C@@H](CCCNC(=N)N)C(=O)N[C@H](C(=O)N[C@H](C(=O)N[C@@H](CCCCN)C(=O)N[C@@H](CCCNC(=N)N)C(=O)N[C@@H](CCCNC(=N)N)C(=O)N1CCC[C@H]1C(=O)N[C@@H](CCCNC(=N)N)C(=O)N[C@@H](CCCNC(=N)N)C(N)=O)[C@@H](C)O)[C@@H](C)O)C(C)C)[C@@H](C)O)[C@@H](C)O)C(C)C)C(C)C [AMP #23] (H-MSTRSSSIRRLVEAVRTRFRAALRTVLFFALRTTKRRPRR-NH2) | 11.5 µM
3 | CC[C@H](C)[C@H](NC(=O)[C@H](CCCNC(=N)N)NC(=O)[C@H](CCCNC(=N)N)NC(=O)[C@@H](NC(=O)[C@H](C)NC(=O)[C@H](CCC(=O)O)NC(=O)[C@H](CCCCN)NC(=O)[C@H](CCCNC(=N)N)NC(=O)[C@H](CO)NC(=O)[C@H](CCCNC(=N)N)NC(=O)[C@H](CC(C)C)NC(=O)[C@@H](NC(=O)[C@H](CC(N)=O)NC(=O)[C@H](CCCNC(=N)N)NC(=O)[C@@H](NC(=O)[C@H](CCCCN)NC(=O)[C@H](CCSC)NC(=O)[C@@H](N)CCSC)[C@@H](C)CC)[C@@H](C)O)C(C)C)C(=O)N[C@@H](Cc1ccccc1)C(=O)N[C@@H](CO)C(=O)N[C@@H](CC(C)C)C(=O)N[C@@H](CCCNC(=N)N)C(=O)N[C@@H](CCCNC(=N)N)C(=O)N[C@@H](CCCNC(=N)N)C(=O)N[C@@H](CO)C(=O)N[C@H](C(=O)N[C@@H](Cc1ccccc1)C(=O)N[C@H](C(=O)N[C@@H](CCC(=O)O)C(=O)N[C@@H](CCSC)C(=O)N[C@@H](C)C(=O)N[C@@H](CCCNC(=N)N)C(=O)N[C@@H](C)C(=O)N[C@@H](Cc1ccccc1)C(=O)N[C@@H](CCCNC(=N)N)C(=O)N[C@@H](CCCNC(=N)N)C(=O)N[C@@H](Cc1ccccc1)C(=O)N[C@@H](CCCCN)C(=O)N[C@@H](C)C(=O)N[C@@H](CCCNC(=N)N)C(N)=O)[C@@H](C)O)C(C)C [AMP #28] (H-MMKIRNTLRSRKEAVRRIFSLRRRSVFTEMARAFRRFKAR-NH2) | > 250 µM
4 | H-MCFCFKAGPKICRGLQRKKKKFKYQTSFTKTGFGFLTKPKSPAR-NH2 (cysteines drawn unpaired) [AMP #10] | > 250 µM
5 | H-MCFCRYRFFYRRRIRFFKWGPYFYVWFGFPFGRKAFFLSVFRRRFC-NH2 (cysteines drawn unpaired) [AMP #19] | > 250 µM
6 | H-MCFFPRRKSKVKVKGGLCRLLFIFFKTTFCFKAKTKKEIKKGTGKKIVR-NH2 (cysteines drawn unpaired) [AMP #18] | 4.7 µM
7 | MAIRIIGRLARVRARVVARVRSRLLADDPPEDLLRVARRRKGRRWLFLS-NH2 [AMP #24] | > 250 µM
8 | MEAFKKKPRLPLFKVKLTRFLERARGLGSYRIFEFFKKFGVKKFVSSLR-NH2 [AMP #15] | 24.8 µM
9 | MGWWFPPKTGNGAGKAFKKAAAAKWGGLFLKAAWFANKGEWGGGFPKGY-NH2 [AMP #9] | > 250 µM
10 | MKAKKWFESLFKTFFKKGKGIYPKSSFEKEKKTDKKKKFGGWVWFKK-NH2 [AMP #16] | 180.2 µM
11 | MKKKKKGILKQNNKKKKYTLFNRMVVFLFLGFIMIIFVQKYKKVIYHK-NH2 [AMP #29] | 50.6 µM
12 | MKLRRRLRTRMVALLVLGVLFLLMLFFIIFLRRMLMRRFRA-NH2 [AMP #26] | > 250 µM
13 | MKQPSKTKTHFKYFLLFLKSVKKVAGFKKKKKKYHWRSYKEGSCFRKRT-NH2 [AMP #13] | > 250 µM
14 | MLFGSRAKKYGKEAKQEKSFQYPKSSFVACKKKWKRSKHFFKTFKKKVS-NH2 [AMP #1] | > 250 µM
15 | MNNRGPLGRRFKARRKWKKFVAGKMKKKRKRFKGFKKKGGFTPFVKKFV-NH2 [AMP #3] | > 250 µM
16 | MNTTSNMIHRAVQQKRISFRAAKLTVLFLFKRRLLRRLLRHHEN-NH2 [AMP #27] | 105.1 µM
17 | MRNFFKKTRLKYKGKKELIKKSRAFGLKTKKRSGFFFPRALKYEEEFY-NH2 [AMP #7] | > 250 µM
18 | MRRKTPVKWKTFFKALKHKKKIFKKTFEKFKFLAKGPAFLKGFDQKLKS-NH2 [AMP #5] | 82.9 µM
19 | MWIKWKKPRKWGRRLKKKEKEELGDYIYLYCKVYRLFGFLPYFISKKTA-NH2 [AMP #17] | > 250 µM
20 | MYLKKFLALKNSLKKLSPFKCAVKSWLKKCAEVTFYSKLLGRRGKKDGN-NH2 (cysteines drawn unpaired) [AMP #6] | 73.8 µM
